# Assay results as given in ChEMBL document CHEMBL4888484, “Replenishing the malaria drug discovery pipeline: Screening and hit evaluation of the MMV Hit Generation Library 1 (HGL1) against asexual blood stage Plasmodium falciparum ,using a nano luciferase reporter read-out” (2022).
# Out of some 150,000 compounds screened, about 540 (0.36%) showed an effect of 50% or more. Some of the results follow.
# Test system: Plasmodium falciparum
# Experiment: Primary screen in NF54 nanoGlo assay, in single point, at 2uM, 72h; a lower Z score goes with more inhibition
# Type: functional, Erythrocyte
# Details: timepoint 72 hour
SMILES,% Inhibition [%],Z score
CCc1c(C)noc1NC(=O)CCc1cccnc1,-5,0.64
O=C(N1CCOCC1)N1CCC[C@H](Cc2nc(-c3ccccc3F)no2)C1,11,-1.48
CN(C[C@@]12CCC[C@@H]1OCC2)C(=O)NCc1nccs1,-4,0.75
CC[C@H]1C(=O)NCCN1C(=O)c1cccc2ccccc12,1,-0.07
CC(C)(C)OC(=O)NCC1(CO)CC1,-2,0.22
CN(C)c1cccc(CCC(=O)N(CC#N)c2ccccc2)c1,-3,0.28
CC(C)Oc1ccccc1NS(=O)(=O)N(C)C(C)C,-8,0.95
CC(C)c1nc(-c2cccc(N3CCNC3=O)c2)n(-c2cccnc2)n1,-8,0.91
O=C(Nc1nc(N2CCOCC2)ns1)c1cc2ccccc2[nH]1,-10,1.56
COc1ccc(Cl)cc1[C@H](C)NCC(C)(C)NS(C)(=O)=O,-10,1.43
Cc1ccc(-n2nc(C)cc2NC(=O)[C@H]2OCCO[C@H]2C)nn1,-3,0.51
O=C(NCCN1CCOCC1)c1ccc(-c2c(F)cccc2F)s1,-4,0.8
CC1CCCC(C)C1N(C)C(=O)CCN (stereo not given),-13,1.21
Cc1cn2cc(C(=O)NCCc3nc4c(s3)CCC4)ccc2n1,-1,0.13
NC(=O)CCn1cc(-c2cc(F)cc3cccnc23)cn1,-12,2.22
Cc1ccc(CN2CCc3nc(N4CCCC4)ncc3C2)cc1C,-8,1.05
CC(C)[C@H]1COC(=O)N1Cc1ccc(Cl)c(Cl)c1,-11,1.57
Cc1noc2ncnc(N3CCn4nc(CCC(=O)NC5CC5)cc4C3)c12,-13,1.83
CC(C)CN(Cc1ccsc1)C(=O)Cc1ccc(O)c(Cl)c1,-10,0.95
COC(CS(=O)(=O)Nc1ncn(-c2ccc(F)cc2)n1)C1CCOC1 (stereo not given),-15,2.73
Cn1c(-c2nc(-c3ccncc3)nn2CC(F)(F)F)cc(=O)n(C)c1=O,-23,4
CC1CCC2(CC1)NC(=O)N(CN1CCN(Cc3ccc(Cl)s3)CC1)C2=O (stereo not given),-12,2.32
COc1cn(CC(=O)NC2CCN(C(=O)c3cc4ccccc4[nH]3)CC2)c(C)cc1=O,5,-0.62
O=C(c1ccc2nccn2c1)N1CCN(c2cnccn2)CC1,-18,3.91
NC(=O)C1CCN(c2ccc(NC(=O)CCC3CCCC3)cc2S(=O)(=O)N2CCOCC2)CC1,-6,1.11
